Here are results for 40 molecules from the supplement of paper PMC8813932.

Where a name gives a salt, the structure may show the parent alone. ± gives the standard deviation of the averaged measurements. The list shows a part of the results. Single values are uncertain, as repeats are few or missing.

The first assay deals with OVCAR4. Description: log2 surviving fraction relative to plate median (drug vs vehicle, or drug+dl922-947 vs dl922-947 alone); ovarian cancer lines: OVCAR4 is platinum-sensitive while Ov4Cis resists cisplatin and Ov4Carbo carboplatin; higher = more cell survival. The following applies: dl922-947 oncolytic adenovirus co-treatment: MOI 10; compound concentration: 10 uM; 192 h.
For `CN(C)C(=O)C(CCN1CCC(O)(c2ccc(Cl)cc2)CC1)(c1ccccc1)c1ccccc1` [Loperamide hydrochloride], the log2 surviving fraction was -3.34 ± 2.6.

Take `O=C(N[C@H](CO)[C@H](O)c1ccc([N+](=O)[O-])cc1)C(Cl)Cl` [Chloramphenicol (Chloromycetin)]: the log2 surviving fraction came out at 0.294 ± 0.28.

On to `CCCCOc1cc(C(=O)NCCN(CC)CC)c2ccccc2n1` [Dibucaine HCL], for which the log2 surviving fraction is -0.186 ± 0.37.

Regarding `CCCCCCCN(CC)CCCC(O)c1ccc(NS(C)(=O)=O)cc1` (stereo unspecified) [Ibutilide fumarate], the log2 surviving fraction was -0.594 ± 0.54.

With `CC(C)C[C@H](NC(=O)[C@H](CCc1ccccc1)NC(=O)CN1CCOCC1)C(=O)N[C@@H](Cc1ccccc1)C(=O)N[C@@H](CC(C)C)C(=O)[C@@]1(C)CO1` [Carfilzomib (PR-171)], the log2 surviving fraction is -10.4 ± 1.3.

As to `Nc1nc(CC(=O)Nc2ccc(CCNC[C@H](O)c3ccccc3)cc2)cs1` [Mirabegron (YM178)], the log2 surviving fraction is -0.33 ± 0.95.

Turning to `CN1CCN(C2=Nc3cc(Cl)ccc3Nc3ccccc32)CC1` [Clozapine (Clozaril)], the log2 surviving fraction worked out at 0.0857 ± 0.47.

For the molecule `N=C(N)c1ccc(OCCCCCOc2ccc(C(=N)N)cc2)cc1` [Pentamidine], the log2 surviving fraction was -3.34 ± 1.4.

Regarding `Cc1cccc(Nc2ccccc2C(=O)O)c1C` [Mefenamic acid], the log2 surviving fraction was -0.393 ± 0.13.

On to `CCN(CC)CCOC(=O)C1(C2CCCCC2)CCCCC1` [Dicyclomine HCl], for which the log2 surviving fraction was -0.0762 ± 0.049.

Consider `O=C(C1CCCCC1)N1CC(=O)N2CCc3ccccc3C2C1` (stereo unspecified) [Praziquantel (Biltricide)], for which the log2 surviving fraction came out at 0.451 ± 0.21.

The same assay, now with this note: dl922-947 oncolytic adenovirus co-treatment: none; compound concentration: 10 uM; 192 h.
In the case of `CC1CNc2c(cccc2S(=O)(=O)N[C@@H](CCCNC(=N)N)C(=O)N2CC[C@@H](C)C[C@@H]2C(=O)O)C1` (stereo partly specified) [Argatroban], the log2 surviving fraction came out at 0.934 ± 0.22.

As to `O=c1c(-c2ccc(O)cc2)coc2cc(O)ccc12` [Daidzein], the log2 surviving fraction was -0.164 ± 1.2.

Turning to `COc1cc2nc(N3CCN(C(=O)C4CCCO4)CC3)nc(N)c2cc1OC` (stereo unspecified) [Terazosin HCl (Hytrin)], the log2 surviving fraction is -0.123 ± 0.046.

Turning to `O=C(O)CCc1nc(-c2ccccc2)c(-c2ccccc2)o1` [Oxaprozin], the log2 surviving fraction was found to be 1.23 ± 0.15.

Turning to `CCC[C@H](NC(=O)[C@@H]1[C@H]2CCC[C@H]2CN1C(=O)[C@@H](NC(=O)[C@@H](NC(=O)c1cnccn1)C1CCCCC1)C(C)(C)C)C(=O)C(=O)NC1CC1` [Telaprevir (VX-950)], the log2 surviving fraction was -1.94 ± 0.091.

Turning to `COC(=O)C1=C(C)NC(C)=C(C(=O)OC)C1c1ccccc1[N+](=O)[O-]` [Nifedipine (Adalat)], the log2 surviving fraction was 0.695 ± 0.34.

For `COc1ccc2c(c1)C(=O)N(CCc1ccc(S(=O)(=O)NC(=O)NC3CCCCC3)cc1)C(=O)C2(C)C` [Gliquidone], the log2 surviving fraction is -0.481 ± 0.12.

Regarding `OC(Cn1cncn1)(Cn1cncn1)c1ccc(F)cc1F` [Fluconazole], the log2 surviving fraction worked out at 0.296 ± 0.34.

Take `C[C@@H](O)[C@H]1C(=O)N2C(C(=O)O)=C(S[C@@H]3CN[C@H](CNS(N)(=O)=O)C3)[C@H](C)[C@H]12` [Doripenem Hydrate]: the log2 surviving fraction came to 0.673 ± 0.71.

`CN1[C@@H]2C[C@@H](OC(=O)[C@H](CO)c3ccccc3)C[C@H]1[C@@H]1O[C@@H]12` [Scopolamine hydrobromide]: the log2 surviving fraction amounted to 0.644 ± 0.18.

With `CCCCCCOC(=O)NC(=N)c1ccc(NCc2nc3cc(C(=O)N(CCC(=O)OCC)c4ccccn4)ccc3n2C)cc1` [BIBR-1048 (Dabigatran)], the log2 surviving fraction is -3.48 ± 5.3.

As to `Clc1ccc(CSC(Cn2ccnc2)c2ccc(Cl)cc2Cl)cc1` (stereo unspecified) [Sulconazole Nitrate], the log2 surviving fraction is -1.29 ± 0.26.

Regarding `CC(C)(O)c1ccccc1CC[C@@H](SCC1(CC(=O)O)CC1)c1cccc(/C=C/c2ccc3ccc(Cl)cc3n2)c1` [Montelukast Sodium], the log2 surviving fraction amounted to 0.185 ± 0.068.

Turning to `CC(C)CN(C[C@@H](O)[C@H](Cc1ccccc1)NC(=O)O[C@H]1CO[C@H]2OCC[C@H]21)S(=O)(=O)c1ccc(N)cc1` [Darunavir Ethanolate (Prezista)], the log2 surviving fraction was -0.244 ± 0.6.

For `CN1C[C@@H]2C[C@H]1CN2c1cc2c(cc1F)c(=O)c(C(=O)O)cn2C1CC1` [Danofloxacin Mesylate], the log2 surviving fraction came to 0.96 ± 0.48.

`CC(=O)O[C@H]1C(=O)[C@@]2(C)[C@H]([C@H](OC(=O)c3ccccc3)[C@]3(O)C[C@H](OC(=O)[C@H](O)[C@@H](NC(=O)c4ccccc4)c4ccccc4)C(C)=C1C3(C)C)[C@]1(OC(C)=O)CO[C@@H]1C[C@@H]2O` [Paclitaxel (Taxol)]: the log2 surviving fraction was -5.34 ± 6.7.

Turning to `CC[C@]1(O)C[C@@H]2CN(CCc3c([nH]c4ccccc34)[C@@](C(=O)OC)(c3cc4c(cc3OC)N(C)[C@H]3[C@@](O)(C(=O)OC)[C@H](OC(C)=O)[C@]5(CC)C=CCN6CC[C@]43[C@@H]65)C2)C1` [Vinblastine], the log2 surviving fraction is -2.48 ± 1.9.

In the case of `COC(=O)C1=C(C)NC(C)=C(C(=O)OCC(C)C)C1c1ccccc1[N+](=O)[O-]` (stereo unspecified) [Nisoldipine (Sular)], the log2 surviving fraction was -1.36 ± 0.89.

Consider `Nc1c2c(nc3ccccc13)CCCC2` [Tacrine HCl], for which the log2 surviving fraction was -0.234 ± 0.27.

For the molecule `COc1cc(C(C)=O)ccc1OCCCN1CCC(c2noc3cc(F)ccc23)CC1` [Iloperidone (Fanapt)], the log2 surviving fraction was -0.436 ± 0.041.

For `CCOC(=O)c1cncn1[C@H](C)c1ccccc1` [Etomidate], the log2 surviving fraction came to 0.62 ± 0.24.

In the case of `CCCCN(CCCC)CCCOC(=O)c1ccc(N)cc1` [Butacaine], the log2 surviving fraction came to 0.651 ± 0.38.

Turning to `CCCCc1ncc(/C=C(\Cc2cccs2)C(=O)O)n1Cc1ccc(C(=O)O)cc1` [Eprosartan Mesylate], the log2 surviving fraction was -0.272 ± 0.49.

`Cc1ncc([N+](=O)[O-])n1CC(C)O` (stereo unspecified) [Secnidazole (Flagentyl)]: the log2 surviving fraction was -0.229 ± 0.035.

For `O=c1cc[nH]c(=S)[nH]1` [2-Thiouracil], the log2 surviving fraction was -0.183 ± 1.3.

`Cc1cc(C#N)cc(C)c1Oc1nc(Nc2ccc(C#N)cc2)nc(N)c1Br` [Etravirine (TMC125)]: the log2 surviving fraction is -2.08 ± 1.3.

In the case of `CCOC(=O)N1CCC(=C2c3ccc(Cl)cc3CCc3cccnc32)CC1` [Loratadine], the log2 surviving fraction is 0.257 ± 0.09.

Take `Cc1nnc(NS(=O)(=O)c2ccc(N)cc2)s1` [Sulfamethizole (Proklar)]: the log2 surviving fraction amounted to 0.55 ± 0.056.

For `CC(C)(C)NC(=O)[C@H]1CC[C@H]2[C@@H]3CC[C@H]4NC(=O)C=C[C@]4(C)[C@H]3CC[C@]12C` [Finasteride], the log2 surviving fraction turned out to be 3.39 ± 2.6.

On to `CN(C)C(=O)C(CCN1CCC(O)(c2ccc(Cl)cc2)CC1)(c1ccccc1)c1ccccc1` [Loperamide hydrochloride], for which the log2 surviving fraction is -3.76 ± 0.22.

`O=C(N[C@H](CO)[C@H](O)c1ccc([N+](=O)[O-])cc1)C(Cl)Cl` [Chloramphenicol (Chloromycetin)]: the log2 surviving fraction turned out to be 0.311 ± 0.42.

`CCCCOc1cc(C(=O)NCCN(CC)CC)c2ccccc2n1` [Dibucaine HCL]: the log2 surviving fraction worked out at 0.12 ± 1.1.

For the molecule `CCCCCCCN(CC)CCCC(O)c1ccc(NS(C)(=O)=O)cc1` (stereo unspecified) [Ibutilide fumarate], the log2 surviving fraction was -0.29 ± 0.14.

Take `CC(C)C[C@H](NC(=O)[C@H](CCc1ccccc1)NC(=O)CN1CCOCC1)C(=O)N[C@@H](Cc1ccccc1)C(=O)N[C@@H](CC(C)C)C(=O)[C@@]1(C)CO1` [Carfilzomib (PR-171)]: the log2 surviving fraction was -12.3 ± 7.

As to `Nc1nc(CC(=O)Nc2ccc(CCNC[C@H](O)c3ccccc3)cc2)cs1` [Mirabegron (YM178)], the log2 surviving fraction was determined as 0.221 ± 0.79.

For the molecule `CN1CCN(C2=Nc3cc(Cl)ccc3Nc3ccccc32)CC1` [Clozapine (Clozaril)], the log2 surviving fraction is -0.463 ± 0.37.

For the molecule `N=C(N)c1ccc(OCCCCCOc2ccc(C(=N)N)cc2)cc1` [Pentamidine], the log2 surviving fraction is -4.68 ± 1.8.

Consider `Cc1cccc(Nc2ccccc2C(=O)O)c1C` [Mefenamic acid], for which the log2 surviving fraction is -0.269 ± 0.59.

Regarding `CCN(CC)CCOC(=O)C1(C2CCCCC2)CCCCC1` [Dicyclomine HCl], the log2 surviving fraction was -0.217 ± 0.96.

Consider `O=C(C1CCCCC1)N1CC(=O)N2CCc3ccccc3C2C1` (stereo unspecified) [Praziquantel (Biltricide)], for which the log2 surviving fraction is 0.434 ± 0.021.
